Data: the supplement of paper PMC10126150
Values marked as one replicate rest on one cluster of the flow cell; about a third of the high ones do not repeat.

Tested on: ATP
Experiment: switch fluorescence ratio, 500 uM ATP over buffer (Cy3 cluster intensity, sum of 5 cycles each) (fold (ratio)); higher = stronger signal-on switching upon ATP binding; sequences stand for … in TCGTCGGCAGCGTCAGATGTGTATAAGAGACAGTTTTTTTTTTTTTTTTTTTTTTTTT…TC
Details: aptamer strand: ATP DNA aptamer (quencher-CACCTGGGGGAGTATTGCGGAGGAAGG + anchor), 100 nM annealed; ATP concentration: 500 uM; one replicate
Method in brief: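 Cy3-labelled switching-strand clusters on a modified Illumina MiSeq flow-cell were annealed to 100 nM quencher-labelled ATP aptamer, imaged in selection buffer, then imaged after 15 min with 500 uM ATP at 22 °C. Five buffer/ATP cycles ran, with NaOH stripping and re-annealing between them. The fluorescence ratio is summed target-cycle over summed buffer-cycle Cy3 intensity per cluster, averaged per switch-domain sequence. Clusters outside 100-1000 RFU were excluded.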
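Also: ATP exposure 15 min at 22 °C before imaging.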

| Sequence | switch fluorescence ratio |
| --- | --- |
| TACAGGGAGC | 1.01 |
| TTACCGATTT | 1.04 |
| GCTGCGATTT | 0.997 |
| TCAACGGCGC | 1.01 |
| CGGGACTCAG | 0.994 |
| CGGGATGTAA | 1 |
| AATAACTGG | 0.951 |
| TTCCATCAGC | 0.979 |
| CGGTATGAAA | 0.949 |
| TTGTATCTGG | 1 |
| ACGCACTTTA | 1.48 |
| GGTTTGAAGG | 1 |
| AGAATATGCA | 1 |
| TGCTCAGTAC | 1.4 |
| TAAGCTGTCC | 1.14 |
| CCATCAATG | 1.01 |
| CGGTTTGTTG | 1 |
| CATCATGGGA | 1.03 |
| GGCACGGGAC | 1.06 |
| ATATCGGTGA | 0.984 |
| CCTTGAGGTT | 1.05 |
| ACAAACTTTT | 1.13 |
| TCCAGCCTTC | 1.17 |
| TCCGAAGGAG | 0.972 |
| GATGGACCCT | 1.06 |
| TGTGAGAACG | 1.04 |

| Sequence | switch fluorescence ratio |
| --- | --- |
| CCAAAGTGTA | 1.06 |
| GATAGATTTT | 0.997 |
| TAGTATATC | 1.02 |
| TTGATTACGA | 1.02 |
| GATTTCGCTT | 1.01 |
| GCAGGCCGGT | 0.982 |
| CAACTGGCGT | 1.03 |
| GCTCACGATA | 1.23 |
| CCTCAGATTC | 1.78 |
| GTTTATAACT | 1 |
| AGAATTAATG | 0.981 |
| CGGTCTGGCT | 0.999 |
| TGCACAGCGT | 1.04 |
| CGCTTTTTGT | 0.92 |
| TTGGCGGAG | 1.08 |
| AACATATA | 1.03 |
| AGAATCCAAA | 1.03 |
| ACTGTGGGAT | 1.01 |
| CCGTGGCGAA | 1.77 |
| ATGCCGAAGA | 0.98 |
| AGGGCCGCTG | 1.04 |
| GTAATATGAG | 1.07 |
| CCTTTCTGCA | 1.58 |
| AATAATGTTT | 1.03 |
| TAGAGTGGAC | 0.976 |
| CAGGTGCTAT | 2.17 |

| Sequence | switch fluorescence ratio |
| --- | --- |
| GTCCGTACAT | 0.998 |
| ATCGAGAGCT | 0.988 |
| CCCGACCCTT | 1.06 |
| CGGATACCGC | 1.03 |
| AAGTCCATCC | 1.11 |
| AGCTTGTGCT | 1.02 |
| GCATTTTTCC | 0.996 |
| TCCGACTAGG | 1.08 |
| ATATCTAGT | 0.936 |
| TTTGATCGCG | 0.995 |
| AGCAGCAGAT | 1.07 |
| CTGCCTGTCA | 1.02 |
| TAATTAGTAA | 0.953 |
| ATGCCGGTTT | 1.04 |
| TAGCACTTCA | 1.1 |
| GCTAATTCGT | 0.992 |
| TACCGTTGGA | 1.05 |
| TTAGACCAGT | 1.05 |
| GTTCCTTCTT | 1.08 |
| CGTACAAAAC | 1.26 |
| TTCGTATGAG | 1.05 |
| GGTAGAGCGG | 0.975 |
| GGGTGTGCT | 0.99 |
| TAACGATAGC | 1.06 |
| GGTCAAATTA | 1.05 |
| CCAAATACAA | 1.03 |

| Sequence | switch fluorescence ratio |
| --- | --- |
| TGATTAGTG | 1.03 |
| CAGGCTGAAC | 0.948 |
| GGGCTTAGCG | 0.98 |
| TCGAGAATAT | 0.977 |
| AGCAACTTTC | 1.24 |
| CTGTTTAGGT | 0.978 |
| GCTTGTACCG | 1.04 |
| GATGGGGACC | 1.03 |
| AGTACATTCC | 1.9 |
| CCCGGCCTCT | 1.14 |
| TTCTCGAAAT | 1.03 |
| CGTTCTTAGC | 1.03 |
| AGTGTTGTTA | 1.02 |
| AGATCCGTAT | 0.984 |
| AGCCAGAACG | 1.02 |
| GAGAGCTAC | 1.13 |
| TTCTATATAC | 1.16 |
| AATAACGTGG | 0.989 |
| TTATAGCGG | 1.08 |
| CATTCAAGAA | 1 |
| CAGGGCGATG | 1 |
| TTGACATAAG | 1.05 |
| TCAGTGTTCG | 1.05 |
| TACGGCAG | 1 |
| AAGCACGTAG | 1.02 |
| GTTTGGTACT | 1.03 |

| Sequence | switch fluorescence ratio |
| --- | --- |
| GGGGCATGTG | 1 |
| GCTCGAAATA | 1.45 |
| ATGTAGGTTT | 1.02 |
| CTTATATTTA | 1.01 |
| AGGCGCCAGC | 0.953 |
| GCCTACTACG | 1.1 |
| GGATTTGTTT | 0.977 |
| GTTTACCCTG | 0.976 |
| AGTCGTCGCC | 1.01 |
| TGCGATAGC | 0.984 |
| GGCACCCTAT | 1.04 |
| TGCAGGAAAG | 1.03 |
| CAGCACCGGT | 0.993 |
| TTTAGGTCT | 0.986 |
| GTTGGTTCTG | 0.995 |
| CTTATACAGA | 1.06 |
| CCTGTATGAT | 0.996 |
| CCTTCGGGTT | 2.33 |
| CAAGTGCCCG | 0.958 |
| TGCTATTCAA | 0.998 |
| CGTTGGATCT | 0.983 |
| TAGTTGACAT | 1.03 |
| GACATTACGA | 1.35 |
| CCGCGTGTCG | 1.02 |
| TATTAGTGG | 0.974 |
| AACATGAGAA | 0.965 |

| Sequence | switch fluorescence ratio |
| --- | --- |
| TTACTTGGT | 0.994 |
| GACTCAGGGA | 0.989 |
| CTGAGCTCAA | 1.05 |
| TGCTATTTCG | 1.02 |
| TTGGTCGTCG | 0.953 |
| TGATGGTTGG | 1.01 |
| TGAAATGGAT | 1.01 |
| TCGCTCCATT | 1.04 |
| CCACAATGTG | 1.07 |
| GTAGGGTCTC | 1 |
| TCCGGGCTAT | 1.99 |
| ATTATCTCGA | 1.02 |
| GTCGATTCGC | 0.97 |
| ATATACACTG | 1.11 |
| ATAAGTGGGT | 1.04 |
| GCCTTCTTCT | 1.01 |
| CGCTGTAT | 1.03 |
| CAATCACTA | 1.01 |
| TCATCTGTCG | 0.974 |
| TTCTTGTGGC | 0.984 |
| TCGTCTCACG | 0.987 |
| TGAATGTAAC | 1 |
| CCTGCTGGCT | 1.15 |
| GTGATTGAGC | 1.09 |
| AGGCAGTGAA | 1.02 |
| TGGTCCAGCA | 1.02 |

| Sequence | switch fluorescence ratio |
| --- | --- |
| CGCGGCACCT | 1.11 |
| CGTAGGGACG | 1.12 |
| CATAATTCAC | 1.06 |
| TAATTAGAGA | 0.948 |
| GGCTGATTAC | 1.14 |
| GAAATGTGT | 0.954 |
| ATACGAAAAA | 1.33 |
| GGCATAGACA | 1 |
| TCTTCGTGGA | 1.07 |
| AAACCACGAC | 1.28 |
| AGCCTTGGGC | 0.948 |
| AGGTGTCAGT | 1.03 |
| AGAGGGAAAG | 0.972 |
| TAATGCTGGG | 1.05 |
| AAGAAGGTTC | 0.987 |
| GCCCTTAATG | 0.987 |
| GGGATAAATT | 0.986 |
| GGGGAGGGA | 1.01 |
| CGAACAAGGA | 1.19 |
| CCGATCAGGT | 0.998 |
| TTAAGCCAAG | 0.996 |
| TGGGTTTCGT | 1.02 |
| CTTGAAGGCG | 0.95 |
| AAAGGGTGT | 1.09 |
| AAATTTTAGC | 1.01 |
| CGCATGCTAC | 4.31 |

| Sequence | switch fluorescence ratio |
| --- | --- |
| GCGTAGGCCT | 1.02 |
| CATCGTACGA | 1.05 |
| TCCGTGTATA | 1.04 |
| GAATTACGGA | 1.06 |
| TAACAGTTA | 1.01 |
| TTATTTGGCG | 0.95 |
| CTCAGATTAT | 0.997 |
| CTGTCTGGCG | 1.01 |
| CTGGGGGCCA | 1.02 |
| AGGATGCAAC | 1.07 |
| AGGCGCTC | 0.967 |
| TGTACGGCAG | 0.991 |
| TAATACATGG | 1.06 |
| TACCAGGGAC | 1.09 |
| AAATCTATCG | 0.981 |
| GAGTAAAAGC | 1.02 |
| ACTTTTATAT | 0.985 |
| AGGTGGAGTG | 0.955 |
| GGGTCGCATA | 1.04 |
